# Assay results published in paper PMC4336329 (PLoS ONE, 2015).
# Hit rate of the full screen: of about 310,000 compounds, about 14,000 (4.5%) showed an effect of 50% or more. The effect is printed as a negative number. The list shows a part of the results.
# Target: human ether-à-go-go-related gene (hERG) potassium channel (human, UniProt Q12809)
# Assay: primary screen, population patch clamp on CHO cells stably expressing hERG
# 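Further: peak tail current of the secondary pulse compared with the same well before compound.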
# Sequence of human ether-à-go-go-related gene (hERG) potassium channel (Q12809 whole entry, looked up): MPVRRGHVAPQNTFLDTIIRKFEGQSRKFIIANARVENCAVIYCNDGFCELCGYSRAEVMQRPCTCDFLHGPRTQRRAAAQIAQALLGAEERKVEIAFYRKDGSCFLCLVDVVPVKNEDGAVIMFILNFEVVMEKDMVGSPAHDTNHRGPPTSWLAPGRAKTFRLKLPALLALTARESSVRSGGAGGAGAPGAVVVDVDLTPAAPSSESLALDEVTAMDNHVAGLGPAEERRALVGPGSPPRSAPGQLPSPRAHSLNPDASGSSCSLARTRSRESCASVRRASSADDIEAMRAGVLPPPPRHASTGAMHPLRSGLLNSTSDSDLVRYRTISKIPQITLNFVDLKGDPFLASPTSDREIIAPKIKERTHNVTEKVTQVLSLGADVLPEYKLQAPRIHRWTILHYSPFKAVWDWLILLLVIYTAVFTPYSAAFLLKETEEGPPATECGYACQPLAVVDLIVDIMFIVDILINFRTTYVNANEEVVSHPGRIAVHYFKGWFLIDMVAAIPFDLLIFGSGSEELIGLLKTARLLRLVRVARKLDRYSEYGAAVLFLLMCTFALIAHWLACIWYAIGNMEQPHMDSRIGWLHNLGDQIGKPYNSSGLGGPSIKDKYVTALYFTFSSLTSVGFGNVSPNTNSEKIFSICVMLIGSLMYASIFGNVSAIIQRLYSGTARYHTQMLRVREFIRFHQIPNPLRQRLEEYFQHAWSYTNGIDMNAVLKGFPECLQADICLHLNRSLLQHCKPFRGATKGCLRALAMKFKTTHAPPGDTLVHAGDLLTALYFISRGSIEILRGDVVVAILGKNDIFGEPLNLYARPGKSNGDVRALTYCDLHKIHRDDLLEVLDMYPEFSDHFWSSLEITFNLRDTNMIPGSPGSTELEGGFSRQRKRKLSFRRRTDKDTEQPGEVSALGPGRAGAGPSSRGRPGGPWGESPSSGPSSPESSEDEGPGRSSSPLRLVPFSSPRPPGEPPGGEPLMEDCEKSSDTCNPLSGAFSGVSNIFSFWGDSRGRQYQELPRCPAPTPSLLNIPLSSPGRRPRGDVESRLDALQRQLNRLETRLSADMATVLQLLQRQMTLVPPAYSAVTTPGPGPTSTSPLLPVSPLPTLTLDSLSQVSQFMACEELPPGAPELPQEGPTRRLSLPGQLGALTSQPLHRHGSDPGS
row,Compound,"hERG current change (%, negative = inhibition) at 10uM"
1,COc1ccc(NC(=O)N2CCCC2C(=O)NC2CCCC2)cc1 (stereo not drawn),17.2%
2,O=C(NNc1nc2c(F)cccc2s1)c1cc(=O)c2ccccc2o1,12.1%
3,COc1cccc(-n2c(SCC(=O)N3CCc4ccccc43)nnc2-c2c[nH]c3ccccc23)c1,6.16%
4,C/C(=N\NC(=O)c1ccccc1O)c1ccc(NC(=O)c2ccccc2)cc1,15.3%
5,CN(C)c1nc(Oc2ccc(OCCOc3ccccc3)nn2)nc(N(C)C)n1,-5.51%
6,COC(=O)c1oc2ccc(OC)cc2c1N,5.36%
7,CCOc1ccc(NS(=O)(=O)c2ccc(C(=O)N3CCCC(C)C3)cc2)cc1 (stereo not drawn),-2.67%
8,S=C(NCCC(c1ccccc1)c1ccccc1)Nc1ccccc1Cl,11%
9,CN(CCC(=O)c1ccccc1)CCC(=O)c1ccccc1,-18%
10,NC(=O)c1cc(C(N)=O)nc(Cl)n1,16.1%
11,CCN(CCn1cccn1)C(=O)CC1C(=O)NCCN1Cc1cc(OC)cc(OC)c1 (stereo not drawn),20.7%
12,O=C(COc1ccc(S(=O)(=O)N2CCOCC2)cc1)NCc1ccccc1,4.69%
13,COc1ccc(-n2nnnc2SCC(=O)N2CCCc3ccccc32)cc1OC,-13.4%
14,CN1CCN(c2ccc([N+](=O)[O-])c(N)c2)CC1,-26.7%
15,O=C(NCCCN1CCOCC1)c1cccc(NC(=O)c2ccccc2)c1,8.41%
16,COC(=O)c1cc(S(=O)(=O)N2CCCCC2)c[nH]1,5.57%
17,Cc1ccc(Nc2c(-c3ccc(C)o3)nc3ncccn23)cc1,-15.5%
18,CC(=O)C1=C(O)C=C(c2ccco2)CC1c1ccco1 (stereo not drawn),-0.921%
19,O=c1nc(SCc2ccccc2Cl)nc(-c2ccc(Cl)cc2)[nH]1,25.2%
20,CC(=O)c1ccc(S(=O)(=O)N2CCN(C(=O)c3ccc(-n4nc(C)c(Cl)c4C)cc3)CC2)cc1,-29.2%
21,COc1ccc(C2=NCC(=S)Nc3ccc(Cl)cc32)cc1OC,-0.628%
22,O=C(C1CCC(CNc2c(N3CCCCC3)c(=O)c2=O)CC1)N1CCCCC1 (stereo not drawn),10.2%
23,COc1ccccc1NS(=O)(=O)c1cc(NC(=O)CCC(=O)c2cccs2)ccc1Cl,-13.6%

row,Compound,"hERG current change (%, negative = inhibition) at 10uM"
1,CS(=O)(=O)c1ccccc1-c1nnc(NC(=O)C2=COCCO2)o1,4.66%
2,CCNc1nc(NCC)nc(Nn2cnnc2)n1,-0.371%
3,Cc1ccc(N/C=C(\C#N)S(=O)(=O)c2ccccc2)cc1,14.3%
4,CCOCCCNS(=O)(=O)c1ccc(NC(=O)c2ccccc2)cc1,9.96%
5,CCOc1ccccc1OCC(=O)O,13.2%
6,CCCCNCCCOc1cccc(Cl)c1,-2.83%
7,COc1cccc(NC(=O)CCCOc2cc(=O)n(C)c3ccccc23)c1,12.6%
8,CCCOc1ccc(N2C(=O)CC(NCCNc3ccc([N+](=O)[O-])cn3)C2=O)cc1 (stereo not drawn),-72.5%
9,COc1ccccc1-n1cnc2sc(C)c(C)c2c1=O,5.71%
10,CCOC(=O)C(NC(=O)CC)(Nc1ccccc1)C(F)(F)F (stereo not drawn),21.9%
11,COC(=O)C1C/C(=N\NS(=O)(=O)c2ccc(C)cc2)c2ccccc2C1 (stereo not drawn),-10.6%
12,CC(=O)Nc1ccc(NC(=O)CN(C)S(=O)(=O)c2ccc3nc(C)sc3c2)cc1,25.7%
13,CCOC(=O)Cn1nc(-c2ccc(Cl)cc2)ccc1=O,-18.9%
14,Cc1noc(C)c1COc1ccc(C(=O)N2CCN(c3ccccn3)CC2)cc1,-31.8%
15,CN1CCc2c(sc3nc(SCC(=O)N4CCOCC4)nc(N)c23)C1,1.89%
16,CCOC(=O)CCCSc1nc2sc3c(c2c(=O)[nH]1)CCC3,14.4%
17,Cc1ccc2[nH]c(=O)c(CN(Cc3ccc4c(c3)OCO4)Cc3nnnn3C3CCCC3)cc2c1,4.66%
18,Cc1ccc(Sc2nnc(-c3ccccc3)cc2C#N)cc1,4.01%
19,CC12CCC(c3n[nH]c(=S)nc31)C2(C)C (stereo not drawn),18.7%
20,O=C(Nc1ccccc1C(=O)N1CCCCC1)c1ccco1,18.8%
21,O=C(COC(=O)c1ccccc1O)Nc1cccnc1Cl,8.55%
22,CCCOc1ccc(N2C(=O)CC(SC(=N)N3N=C(c4ccccc4)CC3c3ccccc3)C2=O)cc1 (stereo not drawn),16.6%
